Values joined by “and” are separate entries in the source; they are usually repeats but may differ in a detail not shown here. Identical values can stand only once. The campaign covered roughly 410,000 compounds. About 6,400 (1.6%) were called active. The call rests on the fitted dose curve; in most records, active means well fitted inhibition curve with a large enough effect; inconclusive means small, poorly fitted or top-dose-only effect; inactive means no such curve, though single readings can be large or run the other way. Inconclusive results, whose numbers are uncertain, are shown. Potencies of inconclusive entries are doubtful fits and often do not repeat.
target: Glucagon-like peptide 1 receptor (Homo sapiens) (UniProt P43220); assay: qHTS of GLP-1 Receptor Inverse Agonists (Inhibition Mode); conditions: HEK293 GLP-1R CRE-luciferase, luminescence, 24 h; Potency: GLP-1R form is constitutively active unless noted; series mostly up to 38.3 µM; further: nearly all actives have a fitted effect of over 55% in size
UniProt P43220, sequence (P43220 whole entry, looked up): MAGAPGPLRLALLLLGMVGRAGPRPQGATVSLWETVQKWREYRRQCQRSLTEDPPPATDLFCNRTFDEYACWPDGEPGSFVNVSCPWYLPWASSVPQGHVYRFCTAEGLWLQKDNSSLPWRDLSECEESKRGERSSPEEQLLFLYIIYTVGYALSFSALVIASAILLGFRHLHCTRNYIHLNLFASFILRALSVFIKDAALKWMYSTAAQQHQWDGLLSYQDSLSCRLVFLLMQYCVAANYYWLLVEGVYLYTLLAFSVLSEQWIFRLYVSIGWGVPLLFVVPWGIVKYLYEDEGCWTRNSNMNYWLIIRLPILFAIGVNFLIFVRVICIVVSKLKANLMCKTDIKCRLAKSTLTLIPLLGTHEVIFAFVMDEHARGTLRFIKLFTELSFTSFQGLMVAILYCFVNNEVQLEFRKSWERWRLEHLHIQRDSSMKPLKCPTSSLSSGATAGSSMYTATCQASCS
Source text: The overall goal of this project was to develop a novel assay for discovering small molecule ligands for class B1 G protein-coupled receptors (GPCRs). Very few agonists (or inverse agonists in inhibition mode) with generally weak activity for this entire group of physiologically important receptors are known to date. To establish proof-of-principle that this critical bottleneck can be overcome with a suitable screening approach, our studies focused on the class B1 receptor for glucagon-like peptide-1 (GLP-1R), a potential therapeutic target for diabetes and neurodegenerative disease. The assay was developed using a cell-based functional readout. Toward this goal, stably transfected HEK293 cell clones were established that co-express (i) a cAMP-responsive luciferase reporter gene, and (ii) constitutively active GLP-1R that upon ligand interaction inhibit (inverse agonists) the luciferase activity. In addition, two control cell lines were developed: (i) one that express only the cAMP-responsive reporter gene to enable initial exclusion of GLP-1R independent effects of candidate probes; and (ii) one with the reported gene cloned with another constitutively active orphan receptor GPR119 to enable exclusion of GLP-1R independent inhibitor effects of candidate inverse agonists. To that end, this assay was optimized for 1536-well format and screened against the MLSMR. […] NIH Molecular Libraries Probe Production Network [MLPCN] NIH Chemical Genomics Center [NCGC] Grant: NS064851 PI Name: Martin Beinborn, Tufts Medical Center
Six ul of cell suspension (200 cells/uL in DMEM + 10% Nu serum + 1% pen-strep) is dispensed in a white solid 1536-well plate. The plates are incubated for 12 hours at 37 deg C at 5% CO2 followed by addition of 23 nL compounds. After 24 hr incubation at 37 deg C and 5% CO2, 3 uL of luciferase assay detection reagent is added. A luminescence read is obtained on the PerkinElmer Viewlux after 12 min incubation at room temperature.
Potency means the concentration at half of the fitted maximal effect; tags describe the fitted curve by direction and shape.

Compound | Potency
O=S(=O)(Nc1c(O)ccc2ccccc12)c1ccc(F)cc1 | inconclusive: 11.2 µM [inhibitor, partial curve, poor fit]
OC1/C(=C/c2ccc(C(F)(F)F)cc2)N2CCC1CC2 (centres undefined) | inconclusive: 17.8 µM [inhibitor, partial curve, poor fit]
CCN(CC)P(=O)(Nc1ccc(Br)cc1)c1c(C)nn(CCC#N)c1NC(=O)c1ccc(Cl)cc1 (centres undefined) | inconclusive: 11.2 µM [inhibitor, partial curve, poor fit]
C=Cn1ccnc1P(=S)(c1nccn1C=C)C1CCCCC1 | inconclusive: 28.2 µM [inhibitor, single point]
O=P(OC1CCCCC1)(OC1CCCCC1)C(O)c1ccc(Cl)cc1Cl (centres undefined) | inconclusive: 20 µM [inhibitor, single point]
COc1ccc(NC(=S)NC2CC3CCC(C2)N3Cc2ccco2)cc1 (centres undefined) | inconclusive: 7.08 µM [inhibitor, partial curve, poor fit]
Cc1ccc(CNS(=O)(=O)c2cc3c(cc2C)N(C)CCO3)cc1 | inconclusive: 3.16 µM [inhibitor, partial curve, poor fit] and inconclusive: 12.6 µM [inhibitor, single point]
O=C(Nc1ccc(F)cc1)Oc1ccc[nH]c1=O | inconclusive: 12.6 µM [inhibitor, single point]
COc1ccc(C2CN(C)CC2C(=O)c2ccc(F)cc2)cc1Cl (centres undefined) | inconclusive: 12.6 µM [inhibitor, partial curve, poor fit]
CCOc1ccc(C(=O)NC2CC3CCCC(C2)N3Cc2ccccc2)cc1 (centres undefined) | inconclusive: 22.4 µM [inhibitor, partial curve, poor fit]
COC(=O)C1=C(c2ccc(OCc3ccccc3)cc2)C[C@@H]2CC[C@H]1N2C(=O)NCc1ccc(F)cc1 | inconclusive: 7.94 µM [inhibitor, partial curve, poor fit]
CCCOP(=O)(OCCC)C(Nc1cccc(C(F)(F)F)c1)c1ccc(C)cc1 (centres undefined) | inconclusive: 3.55 µM [inhibitor, full curve, poor fit]
CC(C)(O)[C@H]1O[C@H]2CC[C@@]3(C)[C@@](O)(CC[C@H]4Cc5c([nH]c6ccccc56)[C@@]43C)C2=CC1=O | inconclusive: 14.1 µM [inhibitor, single point]
COC(=O)C1=C(c2ccc(F)cc2OCc2ccccc2)C[C@@H]2CC[C@H]1N2C(=O)NCc1ccccc1OC | inconclusive: 12.6 µM [inhibitor, single point]

From PubChem BioAssay AID624417 (National Center for Advancing Translational Sciences (NCATS), 2012)
